Measurements from PubChem BioAssay AID588855 (National Center for Advancing Translational Sciences (NCATS), 2011).
Out of some 410,000 compounds screened, about 5,000 (1.2%) were called active. Inconclusive means that the source gave no clear call. Such entries were picked first, then a sample of the others. Calls follow the shape of the dose curve; as a rule, active = well fitted inhibition curve with a large enough effect; inconclusive = small, poorly fitted or top-dose-only effect; inactive = no such curve, though single readings can be large or run the other way. Where the call is inconclusive, the potency comes from a doubtful curve fit.

Test: qHTS for Inhibitors of TGF-b; also: nearly all actives have a fitted effect of over 65% in size
Conditions: HepG2 CAGA-GFP TGF-b/SMAD3 reporter, GFP fluorescence, 18 h, TGF-beta stimulated, 500 pg/mL final; series mostly up to 46.1 µM; activity, negative = inhibition: at the top concentration
Procedure, shortened: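 GFP signal (ex488/em500-530) from TGF-beta-stimulated HEPG2 CAGA-GFP cells, 500 pg/mL final, 18 h at 37 degrees C in DMEM plus 1% FBS, normalized to unstimulated and DMSO-stimulated controls.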
% is scaled to controls: 0 for no effect and ±100 for the full control effect; potency is read from the fitted curve at half-maximal effect; tags tell the direction and shape of the fitted curve.

Compound	Potency	activity, negative = inhibition
CC1Oc2ccccc2C=C1/C=N/NC(=O)c1ccccc1O (stereo not given)	inconclusive: 17.8 µM [inhibitor, single point]	
COc1ccc(CCN2CC(C(=O)N(C)Cc3ccccn3)CCC2=O)cc1 (stereo not given)		inactive: 2.92%
Cc1cccc(NC(=O)c2nc[nH]c2C(=O)NCC(=O)OC(C)(C)C)c1	inconclusive: 17.8 µM [inhibitor, partial curve, poor fit]	
CCc1nc(SCC(=O)N2c3ccccc3Sc3ccccc32)c2ccccc2n1		inactive: 0.721%
CCCCn1c(N)c(NCc2ccccc2)c(=O)[nH]c1=O		inactive: 4.63%
CCS(=O)(=O)N1Cc2ccccc2CC1C(=O)Nc1nnc(SCc2c(Cl)cccc2Cl)s1 (stereo not given)	inconclusive: 35.5 µM [inhibitor, single point]	
CN(CC(=O)Nc1cccc(S(=O)(=O)N2CCCC2)c1)CC(=O)Nc1ccc(Cl)c(C(F)(F)F)c1	active: 15.8 µM	
CC1=NN(C(=O)c2ccc(Br)cc2)C(O)(c2ccccc2)C1 (stereo not given)	inconclusive: 11.2 µM [inhibitor, partial curve]	
Cc1ccc(C(=O)NCCc2c[nH]c3ccccc23)c(C)c1		inactive: 4.39%
Cc1nc(C(=O)N2CCC(n3nccc3NC(=O)Nc3ccccc3Cl)CC2)cs1		inactive: 14.7%
Cc1ccc(/C=N/NC(=O)c2ccccc2OCc2cccc(Br)c2)o1	inconclusive: 0.891 µM [inhibitor, full curve, poor fit]	
Cc1cccc(NC(=O)C(C)OC(=O)c2ccccc2NS(=O)(=O)c2cc(C)c(C)c([N+](=O)[O-])c2)c1 (stereo not given)	inconclusive: 35.5 µM [inhibitor, single point]	
COc1ccc(/C=N/NC(=O)c2ccc(O)cc2)cc1CN1CCCc2ccccc21	active: 12.6 µM	
COc1cc2ccccc2cc1C(=O)OCC(=O)N(CC(C)C)c1c(N)n(Cc2ccccc2)c(=O)[nH]c1=O	inconclusive: 22.4 µM [inhibitor, single point]	
O=C(/C=C/c1cccc(Cl)c1)N1CCC(Cc2ccccc2)CC1	inconclusive: 35.5 µM [inhibitor, single point]	
COc1cc(-c2nnc(SCc3cc(=O)oc4cc(C)ccc34)o2)cc(OC)c1OC		inactive: 4.09%
COc1cc(C(=O)NCc2cccs2)ccc1OCc1c(C)noc1C		inactive: 20.6%
COc1cc(C(CCN2CCN(c3ccccc3)CC2)c2c(OC)cc(OC)c3ccc(=O)oc23)cc(OC)c1OC (stereo not given)	inconclusive: 20 µM [inhibitor, partial curve]	
CC(C)(C)c1ccc(/C=C/C(=O)Nc2ccncc2)cc1	inconclusive: 35.5 µM [inhibitor, single point]	
Cc1ccc(S(=O)(=O)/N=C2/NC(=O)/C(=C/c3ccc(Br)o3)S2)cc1		inactive: -9.36%
CCCn1cc(S(=O)(=O)c2cccc(Cl)c2)c(=O)c2cc(F)c(N3CCOCC3)cc21	inconclusive: 0.501 µM [inhibitor, partial curve, poor fit]	
O=S(=O)(Nc1ccc(-c2ccc(N3CCCCC3)nn2)cc1)c1ccc(OC(F)(F)F)cc1	inconclusive: 35.5 µM [inhibitor, single point]	
CCN(CC)C(=O)CSc1nnc2ccc3ccccc3n12		inactive: 0%
Cc1ccc(C(=O)Nc2ncc(Cc3ccc(F)cc3)s2)o1		inactive: 13.3%

Compound	Potency	activity, negative = inhibition
CC1CCCCC1NC(=S)NC(=O)c1ccccc1Cl (stereo not given)	inconclusive: 10 µM [inhibitor, partial curve]	
CCOC(=O)c1sc(NC(=O)COc2ccc3c(c2)OCO3)nc1C	inconclusive: 35.5 µM [inhibitor, single point]	
COc1cc(C2NC(=S)NC(c3ccccc3)=C2C(C)=O)cc(Cl)c1OCC(=O)O (stereo not given)		inactive: -2.08%
O=C(O)C1C2C=CC(O2)C1C(=O)NCCC1=CCCCC1 (stereo not given)		inactive: 5.91%
COCCNC(=O)C1(C)CCCN(C(=O)c2cccc(OC(F)(F)F)c2)C1 (stereo not given)	inconclusive: 14.1 µM [inhibitor, single point]	
CCOC(=O)c1c(C)n(-c2ccccc2)c2ccc(O)cc12	inconclusive: 10 µM [inhibitor, partial curve, poor fit]	
CCOC(=O)C1CCN(c2nc3c(S(=O)(=O)c4ccc(Br)cc4)nnn3c3ccsc23)CC1	inconclusive: 3.16 µM [inhibitor, single point]	
CC1(C)C(=O)NC(=O)N1Cc1ccccc1		inactive: -4.92%
COc1ccc(C(=O)NCCn2cc(SCc3cccc(F)c3)c3ccccc32)cc1OC	inconclusive: 20 µM [inhibitor, single point]	
N#Cc1cccc(C(c2nnnn2C2CCCC2)N2CCCCCC2)c1 (stereo not given)		inactive: -4.19%
COc1cccc(NC(=S)NCc2ccco2)c1	inconclusive: 7.08 µM [inhibitor, partial curve]	
CN(C)c1cc(-c2ccc(Cl)cc2Cl)oc(=O)c1Cl	inconclusive: 10 µM [inhibitor, partial curve, poor fit]	
c1ccc2c(c1)nc1n2CCN1CCN1CCCC1	inconclusive: 35.5 µM [inhibitor, partial curve, poor fit]	
O=C(COc1ccc(/C=C\[N+](=O)[O-])cc1)N1CCOCC1		inactive: 9.64%
COc1cccc(=O)c2c(C)n(C)c(C)c12	inconclusive: 22.4 µM [inhibitor, single point]	
CC(=O)Nc1ccc(S(=O)(=O)N2CCC(c3ccncc3)CC2)cc1	inconclusive: 6.31 µM [inhibitor, single point]	
Cn1c(=O)c2c(ncn2CC(=O)N2CCN(S(=O)(=O)c3ccccc3)CC2)n(C)c1=O		inactive: -37.9%
c1ccc2[nH]c(-c3cscn3)nc2c1		inactive: -0.136%
N#Cc1ccc(-c2nc3ccc(Cl)cn3c2Cc2cccc(Cl)c2)cc1	inconclusive: 28.2 µM [inhibitor, single point]	
CC(C)c1ccc(O)c(NC(=S)NC(=O)c2cccnc2)c1		inactive: -20.7%
Cc1cccc(C)c1NC(=S)N(Cc1ccco1)C1CCN(C(C)C)CC1	inconclusive: 0.112 µM [inhibitor, full curve, poor fit]	
O=C(O)c1ccc(-n2c(-c3cc(C4CC4)[nH]n3)n[nH]c2=S)cc1		inactive: -1.75%
Cc1ccc(-n2nc3c(N4CCC(C(=O)N5CCN(C)CC5)CC4)nnc(C)c3c2C)cc1		inactive: -9.18%
CCOC(=O)c1sc(NC(=O)C2CCC2)cc1C		inactive: 1.12%

Compound	Potency	activity, negative = inhibition
CCc1ccccc1Nc1cc(C(=O)NCc2ccc(C)cc2)c2ccccc2n1		inactive: -16.8%
CN(CC(=O)N1CC=C(c2ccccc2)CC1)S(=O)(=O)c1ccc2c(c1)c(=O)n(C)c(=O)n2C	inconclusive: 3.55 µM [inhibitor, partial curve, poor fit]	
CCOC(=O)N1CCN(C(=O)c2ccc3c(c2)N(Cc2ccccc2F)C(=O)c2ccccc2S3=O)CC1 (stereo not given)	inconclusive: 0.112 µM [inhibitor, full curve, poor fit]	
O=C(NC1CCN(C(=O)N2c3ccccc3Sc3ccccc32)CC1)c1ccccc1Cl	inconclusive: 2 µM [inhibitor, single point]	
CC(=O)N1CCCc2cc(S(=O)(=O)N3CCC(C(=O)N(Cc4ccccc4)C(C)C)CC3)ccc21	inconclusive: 5.01 µM [inhibitor, partial curve]	
COc1ccc(CN2CCNC(=O)C2CC(=O)NC2CCCCC2)c(OC)c1 (stereo not given)	inconclusive: 0.447 µM [inhibitor, full curve, poor fit]	
CC(O)(c1ccc(F)c(F)c1)c1nc(/C=C/c2ccccc2)cs1 (stereo not given)	inconclusive: 35.5 µM [inhibitor, single point]	
COc1cc(C(=O)NCC(=O)N/N=C/c2ccc(-c3ccc([N+](=O)[O-])cc3)o2)cc(OC)c1OC	inconclusive: 2.24 µM [inhibitor, full curve]	
CCN(CC)S(=O)(=O)c1ccc(N2CCN(c3ccccc3O)CC2)nc1		inactive: -16.6%
COCCn1c(C)cc(O)c(C(c2ccccc2)N2CCC(C)CC2)c1=O (stereo not given)		inactive: 21.5%
Cc1ccccc1OCC(=O)Nc1ccc(C(=O)Nc2ccccc2C(=O)O)cc1	inconclusive: 22.4 µM [inhibitor, single point]	
C#CC[N+](C)(C)CCCCCCCCCC	inconclusive: 12.6 µM [inhibitor, single point]	
Cc1[nH]n(-c2ccc(Cl)c(Cl)c2)c(=O)c1CCO	inconclusive: 12.6 µM [inhibitor, single point]	
CC1(C(=O)NCC2CCCCC2)CCN1C(=O)Cc1ccc(-c2ccccc2)cc1 (stereo not given)	inconclusive: 4.47 µM [inhibitor, full curve]	
COc1ccc(N2CCN(C(=O)CSc3nnc(-c4cccnc4)n3-c3ccccc3)CC2)cc1		inactive: 2.64%
Cc1noc(C(=O)Nc2ccccc2C(F)(F)F)c1Cl	inconclusive: 4.47 µM [inhibitor, partial curve, poor fit]	
CCC(C)Sc1ccc([C@@H]2[C@@H]3C(=O)N(CC)C(=O)[C@@H]3[C@]3(C(=O)OC)CCCCN23)cc1OC (stereo not given in full)	inconclusive: 2.82 µM [inhibitor, full curve]	
S=c1sc(SCCOc2ccccc2)nn1-c1ccccc1	inconclusive: 0.631 µM [inhibitor, partial curve, poor fit]	
O=C(Nc1ccccc1C(=O)O)c1cccc(S(=O)(=O)Nc2ccc(Br)cc2)c1	inconclusive: 14.1 µM [inhibitor, single point]	
Cc1ccc(C(NC(=O)C2CCCCC2)c2c(O)ccc3ccccc23)cc1 (stereo not given)	active: 4.47 µM	
CC(C)Cn1c(SCC(=O)NC(=O)NC2CCCC2)nc2ccccc21	inconclusive: 20 µM [inhibitor, single point]	
CCOC(=O)c1c(C)[nH]c(C)c1C(=O)COC(=O)/C=C/c1cccc(C(F)(F)F)c1	inconclusive: 10 µM [inhibitor, partial curve]	
